Reference: PubChem BioAssay AID651820 (National Center for Advancing Translational Sciences (NCATS), 2012)
Screen size: about 340,000 compounds; about 12,000 (3.5%) were called active. The shares of active, inactive and inconclusive entries below differ from those in the screen. The call rests on the fitted dose curve; in most records, active means well fitted inhibition curve with a large enough effect; inconclusive means small, poorly fitted or top-dose-only effect, or another doubt; inactive means no such curve, though single readings can be large or run the other way. Potencies of inconclusive entries are left out as doubtful fits.

Assay: qHTS Assay for Inhibitors of Hepatitis C Virus (HCV)
Conditions: Huh7.5.1 HCVcc-Cre (HCVcc is cell-culture hepatitis C virus) infection, luciferase reporter, 44 h; activity change, negative = inhibition: at 41.8 µM (top of the series) unless noted
Procedure, shortened: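 Cells seeded at 1,000/well and cultured 4 h, then compounds added followed by HCVcc-Cre virus (~0.5 moi). After 44 h further culture, luciferase substrate was added, plates held 15 min at room temperature, and luminescence read for 15 sec.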
On the % scale 0 is the no-effect control and ±100 the full control effect; potency means the concentration at half of the fitted maximal effect; tags describe the fitted curve by direction and shape.

Question: With CCOc1ccc(C(=S)N2CCN(C)CC2)cc1 as the compound, how does the “activity change, negative = inhibition” value read?
Answer: inactive: -2.99%

Question: With Cn1c(SCc2cccnc2)nc2c(c1=O)SCC2 as the compound, how does the Potency read?
Answer: inconclusive [inhibitor, single point]

Question: Which Potency does the source give for COc1ccc(N(C(=O)c2ccc(F)cc2)C2=CC3CCC(C2)N3C)cc1 (configuration not stated) here?
Answer: inconclusive [inhibitor, partial curve]

Question: Which “activity change, negative = inhibition” value does the source give for Cc1ccc(/C=C/C(=O)NCc2cccs2)cc1 here?
Answer: inactive: -13.6%

Question: For COc1ccc(-n2nc(C#N)c(Cl)cc2=O)cc1, which Potency is on record?
Answer: inconclusive [inhibitor, single point]

Question: Which Potency does the source give for CSc1ccc2c(c1)N(CCC1CCCCN1C)c1ccccc1S2 (configuration not stated) here?
Answer: inconclusive [inhibitor, full curve, poor fit]

Question: Which “activity change, negative = inhibition” value does the source give for CCn1c(CNC(=O)c2cccc(C)c2)nnc1SCC(=O)N1CCOCC1 here?
Answer: inactive: 1.16%

Question: With N#Cc1ccc(CSCC(=O)NN=C2CCCC2)cc1 as the compound, how does the Potency read?
Answer: inconclusive [inhibitor, single point]

Question: Which “activity change, negative = inhibition” value does the source give for CC(=O)CN1C(=O)NC(c2ccccc2)(c2ccccc2)C1=O here?
Answer: inactive: 18.5%

Question: Which Potency does the source give for Cc1ccc(N(C)S(=O)(=O)c2c[nH]c3ccc([N+](=O)[O-])cc23)cc1 here?
Answer: inconclusive [inhibitor, single point]

Question: For COc1ccc(S(=O)(=O)N2CCOCC2)cc1NC(=O)CN(C)CC(=O)Nc1cccc(F)c1, which “activity change, negative = inhibition” value is on record?
Answer: inactive: -21%

Question: With OC1(c2cccc(C(F)(F)F)c2)CCN(CCN2CCCCC2)CC1 as the compound, how does the Potency read?
Answer: inconclusive [inhibitor, partial curve]

Question: For CCOC(=O)c1c(C)[nH]c(C(=O)OCC(=O)N(CC(C)C)c2c(N)n(Cc3ccccc3)c(=O)[nH]c2=O)c1C, which Potency is on record?
Answer: inconclusive [inhibitor, full curve]

Question: With CC(C)CN(C(=O)CSc1nc2ccccc2c(=O)n1C)C1CCS(=O)(=O)C1 (configuration not stated) as the compound, how does the “activity change, negative = inhibition” value read?
Answer: inactive: -8.63%

Question: Which Potency does the source give for Oc1ccccc1CN1CCN(C(O)(c2ccccc2)c2ccccc2)CC1 here?
Answer: inconclusive [inhibitor, single point]

Question: For COc1ccc(C)c(Cn2c(-c3nonc3N)nc3ccccc32)c1, which Potency is on record?
Answer: inconclusive [inhibitor, partial curve]

Question: Which “activity change, negative = inhibition” value does the source give for CCOC(=O)c1c(N)sc2c1CCC(C)C2 (configuration not stated) here?
Answer: inactive: -20.4%

Question: Which “activity change, negative = inhibition” value does the source give for CC(C)C(NC(=O)c1ccc(C(C)(C)C)cc1)C(=O)NCC1(N(C)C)CCCCC1 (configuration not stated) here?
Answer: inactive: 4.27%

Question: For Cc1ccc(NC(=O)Nc2nnc(Cc3ccc([N+](=O)[O-])cc3)s2)cc1C, which Potency is on record?
Answer: inconclusive [inhibitor, single point]

Question: For COc1ccc(Br)cc1C(=O)Nc1ccc(N2CCCC2)cc1, which Potency is on record?
Answer: inconclusive [inhibitor, partial curve]

Question: Which Potency does the source give for COc1ccc(CCNC(=O)c2sc3ccccc3c2Cl)cc1OC here?
Answer: inconclusive [inhibitor, single point]

Question: Which “activity change, negative = inhibition” value does the source give for O=C(CC1CCCCC1)NCc1ccccc1Cl here?
Answer: inactive: -10%

Question: With COC(=O)C1=C(C)N(Cc2ccc(OC)cc2)C(=O)/C1=C\c1ccco1 as the compound, how does the Potency read?
Answer: inconclusive [inhibitor, partial curve]

Question: With O=C(c1ccc(S(=O)(=O)N2CCc3ccccc3C2)cc1)N1CCCCC1 as the compound, how does the Potency read?
Answer: inconclusive [inhibitor, single point]

Question: With COc1ccccc1NC(=O)Nc1ccc(Cl)c(S(=O)(=O)Nc2ccccc2OC)c1 as the compound, how does the Potency read?
Answer: inconclusive [inhibitor, single point]

Question: Which Potency does the source give for O=C(OCc1cccc(C(F)(F)F)c1)c1cc(S(=O)(=O)N2CCOCC2)ccc1F here?
Answer: active: 10 µM

Question: Which “activity change, negative = inhibition” value does the source give for Cc1cc([N+](=O)[O-])ccc1NC(=O)C[n+]1ccc(N(C)C)cc1 here?
Answer: inactive: 5.61%

Question: With Cc1ccc(-c2nc3c(c(=O)c4ccccc4n3C)c(=O)n2Cc2ccco2)cc1 as the compound, how does the activity change, negative = inhibition read?
Answer: inconclusive: -72.1% [inhibitor]

Question: Which Potency does the source give for COc1cc2c(cc1OC)CN(C(=O)c1ccc(S(=O)(=O)N(C)c3ccccc3)cc1)CC2 here?
Answer: inconclusive [inhibitor, partial curve]

Question: For CCOc1ccc(N2C(=O)/C(=C\c3cccs3)C(=O)NC2=S)cc1, which Potency is on record?
Answer: inconclusive [inhibitor, full curve, poor fit]

Question: With COC(=O)N1C(=O)[C@](c2ccccc2)(C(C)C)N1C(=O)OC as the compound, how does the “activity change, negative = inhibition” value read?
Answer: inactive: 13.3%

Question: Which Potency does the source give for CN1CCN(c2ccc(NC(=O)c3ccc(-c4ccc(Br)cc4)o3)cc2)CC1 here?
Answer: active: 10 µM

Question: For CO/N=C(\N)c1nonc1N, which Potency is on record?
Answer: inconclusive [inhibitor, single point]

Question: Which Potency does the source give for OCC[C@H]1C[C@H](O)[C@@H](O)[C@]2(CCc3ccccc3CO2)O1 here?
Answer: active: 0.562 µM

Question: Which Potency does the source give for CN(C)CCCN(C(=O)c1ccc2c(c1)OCCO2)c1nc2cc3c(cc2s1)OCO3 here?
Answer: inconclusive [inhibitor, partial curve]

Question: For Cc1ccccc1OCC(=O)Nc1ccc2c(c1)OCO2, which “activity change, negative = inhibition” value is on record?
Answer: inactive: -23.5%

Question: For CCOc1cc(-c2cc(N)n[nH]2)cc(OCC)c1OCC, which Potency is on record?
Answer: inconclusive [inhibitor, partial curve, poor fit]

Question: Which Potency does the source give for CC(=O)Nc1cccc(C(=O)OC(C(=O)c2ccc(C)cc2)c2ccccc2)c1 (configuration not stated) here?
Answer: inconclusive [inhibitor, single point]

Question: With COc1ccc(Cl)cc1NC(=O)C/C(C)=N/NC(=O)c1ccccc1Cl as the compound, how does the “activity change, negative = inhibition” value read?
Answer: inactive: 7.53%

Question: With COC(=O)CC(NC(=S)NC(=O)c1ccccc1)c1ccc(Br)cc1 (configuration not stated) as the compound, how does the Potency read?
Answer: inconclusive [inhibitor, single point]

Question: With O=C(Cc1ccc(F)cc1)N1CCN(c2ccc([N+](=O)[O-])cc2)CC1 as the compound, how does the Potency read?
Answer: inconclusive [inhibitor, single point]

Question: With CCCCOc1ccc(S(=O)(=O)N2CCN(c3ccc(N4CCN(CC)CC4)nn3)CC2)cc1 as the compound, how does the Potency read?
Answer: inconclusive [inhibitor, single point]

Question: For CN1/C(=C\C(=O)C(F)F)C(C)(C)c2ccccc21, which “activity change, negative = inhibition” value is on record?
Answer: inactive: 16.3%

Question: With CC(=O)Nc1ccc(S(=O)(=O)NCCC(=O)NNC(=O)c2ccncc2)cc1 as the compound, how does the “activity change, negative = inhibition” value read?
Answer: inactive: 1.46%

Question: For Nc1cc(-c2ccc(Cl)cc2)nn1-c1ccccc1, which “activity change, negative = inhibition” value is on record?
Answer: inactive: -1.52%

Question: For COc1ccc(N=C2c3ccccc3-c3ccc([N+](=O)[O-])cc32)cc1, which “activity change, negative = inhibition” value is on record?
Answer: inactive: -4.01%

Question: For CCC(=O)NC(c1ccc(C)cc1)c1ccc2cccnc2c1O (configuration not stated), which Potency is on record?
Answer: inconclusive [inhibitor, full curve]
